Test results taken from US6147202, “Production of human hemoglobin in transgenic pigs” (dated 2000).

Target: pig beta globin (pig, UniProt P02067)
Experiment: reassociation of dissociated globin chains from pig and human hemolysate, isoelectric focusing
Protocol: Reassociation of globin chains was performed essentially as described in Methods in Enzymol. 76:126–133. 25 lambda of pig blood, 25 lambda of human blood, or a 25 lambda mixture of 12.5 lambda human blood and 12.5 lambda pig blood were treated as follows. The blood was pelleted at a setting of 5 on microfuge for 2 minutes, then washed three times with 100 lambda 0.9 percent NaCl. The cells were lysed with 50 lambda H_2O, then spun at high speed to confirm lysis. 50 lambda of the lysed cells was then combined with 50 lambda 0.2 M Na Acetate, pH 4.5, put on ice and then incubated in a cold room overnight. After adding 1.9 ml 0.1 M NaH_2PO_44, pH 7.4 each sample was spun in centricon tubes at 4° C. and 5 K until about 0.5 ml remained. Then 1 ml of 0.1 M NaH_2PO_4 pH 7.4 was added and spun through at about 5 K until about 0.2 ml volume was left. The hemoglobin was then washed from the walls of the centricon tube, an eppendorf adaptor was attached, and a table top microfuge was used to remove each sample from its centricon tube. The samples were then analyzed by isoelectric focusing.
It was possible, however, that this observation could be explained by relatively low levels of human beta globin expression. Alternatively, association between pig alpha globin and human beta globin may be chemically unfavorable. […]

Row | Binder | binding result
1 | human alpha globin (other) VLSPADKTNVKAAWGKVGAHAGEYGAEALERMFLSFPTTKTYFPHFDLSHGSAQVKGHGKKVADALTNAVAHVDDMPNALSALSDLHAHKLRVDPVNFKLLSHCLLVTLAAHLPAEFTPAVHASLDKFLASVSTVLTSKYR | binds
2 | pig alpha globin (other) VLSAADKANVKAAWGKVGGQAGAHGAEALERMFLGFPTTKTYFPHFNLSHGSDQVKAHGQKVADALTKAVGHLDDLPGALSALSDLHAHKLRVDPVNFKLLSHCLLVTLAAHHPDDFNPSVHASLDKFLANVSTVLTSKYR | binds
